# In the supplement of paper PMC7826260:
# Some of the results follow. Cleavage of a single-stranded DNA pool by Rep nickase domains was read by sequencing (1 h at 37 °C, 3 µM enzyme); the outer parts of the 90-letter strands are left off. Numbers give uncut DNA relative to the enzyme-free pool, as log2; strong cutting gives strongly negative numbers. There is no active / inactive call. The scaling is to total reads; uncut strands gain when others are lost, and binding without cutting may add a little.
# Experiments:
# Test in all cases: uncleaved DNA left, log2 of reads against the no-enzyme library (log2 ratio); higher = less cleavage (more negative = more Rep cleavage of the k-mer); sequences stand for … in CTCGTCCG…ACCGGAGA
# [1] = test system: T1, Rep nickase domain of Muscovy duck circovirus
# T1 sequence (residues 1-111, tag not shown): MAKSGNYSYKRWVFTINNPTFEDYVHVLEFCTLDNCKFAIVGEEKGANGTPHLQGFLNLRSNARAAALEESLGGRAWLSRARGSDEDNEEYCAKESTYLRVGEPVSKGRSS
# Experimental: (§1)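 A pool of 90-nt single-stranded DNAs with seven random bases just before the constant AC of the nick site (name = the seven bases) was cut by 3 µM recombinant His6-SUMO-tagged Rep nickase domain (300 nM DNA, 50 mM HEPES pH 8.0, 50 mM NaCl, 1 mM MnCl2, 1 h, 37 °C, three replicates). Uncut DNA was amplified and sequenced.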
# [2] = test system: T2, Rep nickase domain of banana bunchy top virus
# T2 sequence (residues 1-94, tag not shown): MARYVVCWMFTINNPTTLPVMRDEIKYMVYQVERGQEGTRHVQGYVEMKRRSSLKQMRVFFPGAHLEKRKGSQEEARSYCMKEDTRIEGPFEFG
# Experimental: as §1
# [3] = test system: T3, Rep nickase domain of cabbage leaf curl virus
# T3 sequence (residues 1-116, tag not shown): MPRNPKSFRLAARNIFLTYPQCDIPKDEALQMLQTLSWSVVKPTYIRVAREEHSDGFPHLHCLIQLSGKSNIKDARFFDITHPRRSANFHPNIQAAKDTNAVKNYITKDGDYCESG
# Experimental: as §1
# [4] = test system: T4, Rep nickase domain of chickpea chlorotic dwarf virus
# T4 sequence (residues 1-124, tag not shown): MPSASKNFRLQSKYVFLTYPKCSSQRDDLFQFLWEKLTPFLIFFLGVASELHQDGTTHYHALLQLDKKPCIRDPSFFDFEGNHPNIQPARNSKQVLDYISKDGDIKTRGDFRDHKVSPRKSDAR
# Experimental: as §1
# [5] = test system: T5, Rep nickase domain of faba bean necrotic yellows virus
# T5 sequence (residues 1-98, tag not shown): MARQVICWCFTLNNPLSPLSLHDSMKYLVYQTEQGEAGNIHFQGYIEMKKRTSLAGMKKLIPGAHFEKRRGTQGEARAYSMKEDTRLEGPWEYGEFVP
# Experimental: as §1
# [6] = test system: T6, Rep nickase domain of maize striate mosaic virus
# T6 sequence (residues 1-117, tag not shown): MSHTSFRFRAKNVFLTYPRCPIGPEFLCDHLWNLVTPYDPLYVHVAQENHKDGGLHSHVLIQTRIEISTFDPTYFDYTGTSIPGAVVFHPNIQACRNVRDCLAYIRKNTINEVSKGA
# Experimental: as §1
# [7] = test system: T7, Rep nickase domain of porcine circovirus 2
# T7 sequence (residues 2-116, tag not shown): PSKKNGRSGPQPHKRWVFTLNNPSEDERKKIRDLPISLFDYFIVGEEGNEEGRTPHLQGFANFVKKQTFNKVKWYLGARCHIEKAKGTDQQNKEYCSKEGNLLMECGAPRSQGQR
# Experimental: as §1
# [8] = test system: T8, Rep nickase domain of tomato golden mosaic virus
# T8 sequence (residues 1-124, tag not shown): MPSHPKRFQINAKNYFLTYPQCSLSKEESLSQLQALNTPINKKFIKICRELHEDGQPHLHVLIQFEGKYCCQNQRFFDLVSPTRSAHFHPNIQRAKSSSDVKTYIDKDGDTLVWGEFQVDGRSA
# Experimental: as §1
# [9] = test system: T9, Rep nickase domain of tomato yellow leaf curl virus
# T9 sequence (residues 1-136, tag not shown): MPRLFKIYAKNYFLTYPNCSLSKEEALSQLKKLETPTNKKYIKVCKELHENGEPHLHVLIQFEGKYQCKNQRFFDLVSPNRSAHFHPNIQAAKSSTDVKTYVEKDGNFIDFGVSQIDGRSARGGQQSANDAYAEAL
# Experimental: as §1
# [10] = test system: T10, Rep nickase domain of wheat dwarf virus
# T10 sequence (residues 1-137, tag not shown): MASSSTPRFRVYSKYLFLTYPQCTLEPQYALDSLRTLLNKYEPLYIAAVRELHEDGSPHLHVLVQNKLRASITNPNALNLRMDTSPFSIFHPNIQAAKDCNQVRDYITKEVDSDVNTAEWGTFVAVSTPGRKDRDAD
# Experimental: as §1
Sequence,uncleaved DNA left (log2) [1],uncleaved DNA left (log2) [2],uncleaved DNA left (log2) [3],uncleaved DNA left (log2) [4],uncleaved DNA left (log2) [5],uncleaved DNA left (log2) [6],uncleaved DNA left (log2) [7],uncleaved DNA left (log2) [8],uncleaved DNA left (log2) [9],uncleaved DNA left (log2) [10]
CGACGAG,0.095,-0.00251,-0.0448,0.398,0.0107,0.293,0.0341,-0.0646,-0.0752,0.00821
GTCTTTG,-0.0604,-0.0852,0.198,0.788,-0.051,1.64,-0.0483,0.053,-0.0902,-0.0802
CAACACG,-0.222,-0.185,-1.09,-0.483,0.0259,-1.1,0.0514,-0.0462,-0.106,-0.157
AATAATA,0.011,-0.0691,-0.194,-2.89,0.101,-0.682,-0.168,-0.029,0.0425,0.0362
CTTTCCC,-0.00187,0.0629,0.0731,-0.34,0.115,-0.432,-0.158,-0.0979,0.0744,0.112
TCACCAT,-0.0442,-0.0297,-0.0482,-1.29,-0.0751,-0.348,-0.384,-0.239,0.0785,-0.0137
TTATTCG,0.0471,-0.13,-0.962,0.0701,-0.00331,-1.12,0.0902,-0.171,-0.0556,-0.184
AATACGC,-0.0472,-0.00874,-0.0623,-0.564,0.0206,-0.869,-0.0726,-0.17,-0.12,-0.146
ACCACCC,-0.225,-0.0642,-0.187,-0.531,-0.081,-0.645,-0.655,-0.119,-0.247,-0.212
GTCAGAA,0.267,0.166,0.487,0.968,0.217,1.67,0.251,0.185,0.164,0.184
AATACGG,0.0204,0.127,0.556,1.38,0.102,1.68,0.202,0.171,-0.0212,0.109
CTTCACT,-0.194,-0.142,-0.359,-2.38,-0.125,-0.963,-0.888,-0.111,-0.0657,-0.0658
CGCGATC,0.00607,-0.0241,0.0237,0.0754,-0.0596,-0.474,0.157,-0.0628,0.0206,-0.0847
GAATGAG,0.00986,0.0265,-0.687,-0.114,0.0629,-1.01,0.0823,-0.0257,0.109,-0.0403
TTGTCGT,0.102,0.0215,-0.724,-0.599,0.00121,-0.979,-0.062,0.0113,0.0966,-0.0409
CAAAAAA,0.0436,0.0389,0.0484,-0.686,0.0986,-0.65,0.15,0.185,0.0249,0.00181
GAGCTGG,-0.0368,-0.0816,0.112,0.782,-0.0166,0.765,0.0652,-0.0239,-0.1,-0.00356
GGTCAAC,0.076,0.143,0.624,1.37,0.0203,1.95,0.223,0.0473,0.0401,0.123
CGCCATC,-0.103,-0.162,0.0263,0.0888,-0.0771,-0.376,-0.0643,-0.185,-0.0185,-0.0773
CGATGGC,0.123,0.121,-0.000675,0.239,0.00418,-0.502,0.234,0.0294,0.179,0.12

Sequence,uncleaved DNA left (log2) [1],uncleaved DNA left (log2) [2],uncleaved DNA left (log2) [3],uncleaved DNA left (log2) [4],uncleaved DNA left (log2) [5],uncleaved DNA left (log2) [6],uncleaved DNA left (log2) [7],uncleaved DNA left (log2) [8],uncleaved DNA left (log2) [9],uncleaved DNA left (log2) [10]
TGGTACC,-0.189,0.0304,-0.346,-0.0775,0.00242,1.2,-2.76,-0.241,0.0364,-0.497
TAGGGGG,0.113,0.0118,0.174,0.0652,0.0945,-0.162,0.299,0.192,0.0973,0.081
GGGACCA,-0.0504,0.122,0.894,2.11,-0.0171,2.27,0.218,-0.00875,-0.0737,0.157
GGCTCAA,0.0334,0.0737,0.42,1.12,0.0128,1.67,0.0535,0.0478,0.0512,0.0797
ATCTTTG,0.0913,0.0984,-0.518,-0.437,0.101,-1.03,0.213,0.0813,0.0445,0.146
TAGCTAG,0.0802,-0.0662,-0.173,-0.0911,-0.0281,-0.706,0.202,0.0196,-0.0607,-0.0598
TGCAGAG,0.0263,0.0326,-0.327,-0.374,-0.0258,-0.844,0.086,0.0451,0.0553,-0.151
TTACCAA,-0.0767,0.131,0.0029,-1.4,-0.0262,0.0432,-0.914,-0.0795,0.136,0.14
GGTCGTT,0.00857,0.0187,0.664,1.36,-0.0241,1.86,0.0255,-0.12,0.0124,0.00566
AAAGGTT,0.184,0.106,0.216,1.53,0.0635,1.81,0.149,0.164,-0.015,0.13
ACTGCTG,0.0187,0.0452,0.0357,0.802,0.0987,0.297,0.126,0.172,0.057,-0.0028
CAACTGC,0.0077,0.0526,-0.29,-0.343,-0.0372,-0.744,0.0812,-0.0791,-0.0152,0.00659
AGATCCA,-0.0695,-0.00665,0.252,0.506,-0.135,1.55,0.0405,-0.0507,-0.0726,-0.146
CGACTTC,0.0508,0.0288,0.16,0.58,0.0477,1.06,0.175,-0.0894,0.125,0.0933
TTTCTCA,-0.016,0.0818,0.208,-0.706,0.0271,0.0433,-0.162,-0.0591,0.163,-0.00379
GCTGTGT,-0.0987,-0.111,-0.166,-0.165,-0.11,-0.522,-0.0978,-0.0649,0.00562,-0.133
ACCGGCT,-0.0867,-0.121,-0.289,-0.591,-0.195,-0.721,-0.00591,-0.121,-0.0712,-0.0791
TAAGTCA,0.0246,0.0426,-1.42,-2.52,0.0518,-0.545,-0.0689,-0.13,0.0776,-0.854
CAACGGT,0.0313,-0.0281,-0.00274,-0.342,-0.00696,0.605,-0.0249,-0.0385,-0.145,-0.21
CCCTTTG,0.0253,-0.00577,-0.538,-0.733,-0.106,-1.08,0.0581,0.0291,0.0967,-0.174

Sequence,uncleaved DNA left (log2) [1],uncleaved DNA left (log2) [2],uncleaved DNA left (log2) [3],uncleaved DNA left (log2) [4],uncleaved DNA left (log2) [5],uncleaved DNA left (log2) [6],uncleaved DNA left (log2) [7],uncleaved DNA left (log2) [8],uncleaved DNA left (log2) [9],uncleaved DNA left (log2) [10]
GTTTGTG,0.0512,-0.101,-0.572,-0.36,0.0855,-0.851,0.172,0.0436,0.111,-0.127
TAGAGGT,0.111,0.0225,0.275,0.516,0.103,1.39,-2.35,0.176,0.012,-0.0214
GCAGGTC,0.123,0.159,0.355,0.806,0.0606,0.502,0.24,0.154,0.215,0.0303
GTAGGAA,0.24,0.0845,0.572,1.29,0.0812,1.84,0.2,0.249,0.138,0.219
GTTTCCC,-0.151,-0.0968,0.286,0.715,-0.213,1.58,-1.46,-0.0998,0.00905,-0.018
TATACTA,-0.0778,-0.0643,-0.123,-2.65,0.0347,-0.34,-0.356,-0.0854,0.0167,-0.0194
CACAGGC,0.171,0.0408,-0.107,-0.182,0.114,-0.889,0.246,0.0369,0.0535,-0.00721
TATGAGA,-0.0103,-0.0642,-0.315,-0.848,0.0464,-1.3,0.0238,-0.136,-0.112,-0.0319
GGACGTT,-0.00469,-0.00124,0.774,1.79,-0.127,2.23,0.151,-0.0445,-0.0701,0.1
GGCTACT,-0.515,0.0796,0.345,0.477,-0.00194,1.86,-2.5,0.0119,0.18,0.067
GCCAGTC,0.0296,0.0469,0.0867,0.214,-0.187,-0.185,0.142,0.0273,-0.022,-0.0753
GCCACTA,0.0572,-0.00719,0.117,-0.249,0.0833,0.166,0.0253,-0.0156,-0.0284,0.0463
GTTAATC,0.153,0.186,0.408,0.931,0.0422,1.59,0.192,0.129,0.115,0.156
TCCCGGT,-0.0356,-0.117,0.391,0.759,-0.0727,1.3,0.041,0.089,-0.0338,-0.109
CAACACA,0.019,0.144,-0.389,-2.25,0.0704,-0.696,-0.1,0.0493,0.0378,0.115
TCTCAGC,0.0499,-0.0139,-0.132,-0.593,0.0618,-0.827,0.239,0.0373,0.0673,-0.0376
GCAGCCC,-0.0359,-0.0928,0.0961,0.222,0.00161,-0.0573,0.168,0.0471,0.0481,0.152
TGAGCGG,-0.0148,0.056,0.228,1,-0.0864,1.26,0.217,0.141,-0.0939,0.0357
AAACTAA,0.0821,0.0638,-0.111,-1.15,0.0698,-0.531,0.0163,0.152,-0.0673,0.114
CTGTTAG,-0.0888,-0.086,-0.941,-0.47,0.000931,-1.18,0.121,-0.0205,0.00794,-0.103
